This assay deals with T1, CLL1 protein (C-type lectin-like molecule 1) expressed on cells (UniProt Q5QGZ9 1-265, limits assumed).
T1 construct: whole, on cells; also called CLEC12A; C-type lectin domain family 12 member A
T1 sequence (looked up): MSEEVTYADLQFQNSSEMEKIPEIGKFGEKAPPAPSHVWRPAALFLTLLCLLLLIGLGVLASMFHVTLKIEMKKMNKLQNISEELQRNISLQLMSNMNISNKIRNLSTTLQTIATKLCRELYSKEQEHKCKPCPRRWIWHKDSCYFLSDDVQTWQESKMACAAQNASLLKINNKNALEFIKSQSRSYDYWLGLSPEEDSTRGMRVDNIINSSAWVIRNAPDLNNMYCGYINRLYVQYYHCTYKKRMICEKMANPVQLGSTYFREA
Put plainly: flow cytometry, FITC-labelled CLL1-VHH-1-hFc titrated on K562-CLL1 cells; KD from a double-reciprocal plot of MFI. On the technique in general: In flow cytometry, cells or beads pass a laser one at a time.

Data on one molecule can be found in patent EP4663658A1 (Carbiogene Therapeutics Co., Ltd., dated 2025).

B1: anti-CLL1 single-domain antibody fused with hFc (CLL1-VHH-1-hFc) (Fc fusion)
chain: DVQLQESGGGLVQPGGSLRLSCAASGFTFGDYDMTWVRQAPGKGPEWVSAINSGGGSTYYADSVKGRFTISRDNAKNTLYLQMNSLKPEDTAVYYCATIDRLSTVVAGTYQPSDEYDYWGQGTQVTVSS[no letters for human IgG1 Fc with changes]
notes: Expressed in HEK293 cells and purified on Protein A. No linker between VHH and hFc is described, and no signal peptide is described; For flow cytometry (KD, specificity) the protein was labelled with the Pierce NHS-Fluorescein Antibody Labeling Kit (FITC-CLL1-VHH-1-hFc); The NK cell assays used the unlabelled protein; also called FITC-CLL1-VHH-1-hFc; VHH-hFc
As usually defined, the Kd is the free concentration of one partner at which half of the binding sites on the other are occupied at equilibrium, for simple one-to-one binding. Turning to B1, the dissociation constant (Kd) turned out to be 48.3 nM.
